# In all, about 33,000 sequences were measured (“E-score (-0.5 to 0.5)”: median about -0.012, highest 2% from about 0.29 on). The list shows a part of the results.
# Molecular target: T1, Ybr033w (UniProt P38073)
# T1 sequence: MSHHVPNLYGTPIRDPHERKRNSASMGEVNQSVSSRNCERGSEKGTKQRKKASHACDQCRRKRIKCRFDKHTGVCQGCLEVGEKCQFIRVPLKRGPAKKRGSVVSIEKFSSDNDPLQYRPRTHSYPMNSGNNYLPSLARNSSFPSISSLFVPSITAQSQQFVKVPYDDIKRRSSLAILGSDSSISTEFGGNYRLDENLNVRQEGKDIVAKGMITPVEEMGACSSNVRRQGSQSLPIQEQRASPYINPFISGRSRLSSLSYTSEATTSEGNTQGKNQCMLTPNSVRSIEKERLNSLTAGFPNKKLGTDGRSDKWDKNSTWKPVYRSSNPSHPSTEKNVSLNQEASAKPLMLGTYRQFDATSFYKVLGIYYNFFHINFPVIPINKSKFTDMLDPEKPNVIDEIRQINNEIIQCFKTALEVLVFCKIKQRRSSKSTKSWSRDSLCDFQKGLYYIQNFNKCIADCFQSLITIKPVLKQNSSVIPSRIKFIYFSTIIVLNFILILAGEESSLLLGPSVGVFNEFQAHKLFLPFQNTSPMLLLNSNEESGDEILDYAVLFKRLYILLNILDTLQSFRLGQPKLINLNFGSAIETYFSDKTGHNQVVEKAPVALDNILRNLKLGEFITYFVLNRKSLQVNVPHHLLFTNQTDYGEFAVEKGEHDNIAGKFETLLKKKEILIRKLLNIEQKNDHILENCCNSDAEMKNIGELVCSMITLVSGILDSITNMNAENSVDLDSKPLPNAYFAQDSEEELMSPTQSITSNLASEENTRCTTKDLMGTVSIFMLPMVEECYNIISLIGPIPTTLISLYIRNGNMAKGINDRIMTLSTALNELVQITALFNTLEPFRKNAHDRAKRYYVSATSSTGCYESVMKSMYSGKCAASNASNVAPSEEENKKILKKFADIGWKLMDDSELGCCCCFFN
# Experiment: PBM E-score (8-mer binding enrichment) (E-score (-0.5 to 0.5)); higher = stronger / more preferred TF binding; most listed sequences are background and not binding sites
# Settings: protein concentration: 200 nM; construct: GST-full length
# Experimental: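 Universal 'all 10-mer' protein binding microarrays (Agilent AMADID 015681) probed with GST-tagged S. cerevisiae TFs (full-length or DBD) made by in vitro transcription/translation (PURExpress), about 100-200 nM. Bound TF was detected with fluorescent anti-GST. Each ungapped 8-mer (which stands for itself and its reverse complement) is scored by the PBM enrichment score (E-score), a modified Wilcoxon-Mann-Whitney statistic from -0.5 to +0.5, computed with the Universal PBM Analysis Suite. Scale: above 0.35 generally sequence-specific binding.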
row,Sequence,PBM E-score
1,CATCAGAG,0.059
2,GCTTGAAC,0.167
3,ACGGTGCA,-0.0212
4,ACTGGGCG,-0.197
5,CTCGGGAC,-0.0856
6,TACTGTGA,0.072
7,GGGACACC,-0.308
8,ACGTTGTA,0.0347
9,CAAGTGCC,-0.0731
10,GCAATGGC,-0.272
11,TCAAGGCA,-0.0983
12,CCTCGGAG,-0.0227
13,AGCCAGAA,-0.153
14,AACTGAAG,0.0551
15,AGACAGTC,-0.0329
16,CAATATTC,0.219
17,CTCATTTA,0.0742
18,ATGCGGGG,-0.234
19,CCAGGAAC,-0.103
20,CAGGATAA,0.274
21,AGGTCCAA,-0.196
22,AACGGATT,0.255
23,CTCAGCCA,-0.0871
24,CACACCCG,-0.165
25,GCCAAAAC,-0.132

row,Sequence,PBM E-score
1,TAATAAAA,0.365
2,CAGGGCCA,-0.313
3,CTGATTTC,-0.0423
4,ACGATCCT,0.0631
5,AACGCTAT,-0.00386
6,AAGAGGGC,-0.0933
7,ACTGTCCC,-0.204
8,TAGTCGCA,0.0305
9,CGAATGCG,0.112
10,AAGGATGG,-0.136
11,ATCGACCC,0.00901
12,GGCTGTAC,-0.194
13,GGGCTGCA,-0.21
14,GGTAATGA,0.0887
15,CAAATTAG,0.0918
16,AAATGTTA,0.149
17,GATGCGGA,-0.0741
18,CGTCCGCC,-0.169
19,ATAATACC,0.187
20,GTCTCTCA,-0.0154
21,CCAGATCA,0.0669
22,GGGTGCAC,-0.337
23,CCTGGAAC,-0.068
24,AGGTCAAC,-0.0296
25,GCTAGAAC,-0.0465

row,Sequence,PBM E-score
1,ATCGTCGA,-0.0364
2,CCTGGCCA,-0.245
3,CCCCCAAA,-0.26
4,CCTCTGAG,-0.205
5,TACCGCAA,0.0331
6,ACACGTTG,-0.052
7,ACATCCCC,-0.178
8,AGAAACGA,0.151
9,ATGCCCCG,-0.215
10,GAGATCGC,-0.00988
11,ACGGTGAG,-0.135
12,CCATGGTA,-0.0465
13,CATCCTGA,0.0802
14,TGAACTAA,0.142
15,AATGTACC,-0.0693
16,CCTACTCA,-0.093
17,CGTTTCCC,-0.15
18,AAGTTATC,0.143
19,CTCGAGAG,-0.193
20,GGATAACC,-0.053
21,AGAGGGCG,-0.123
22,GACCTGAC,0.0633
23,ACAGTGAA,0.136
24,CCCAGTAG,-0.0146
25,GGCATAAA,0.167

row,Sequence,PBM E-score
1,AAAGACAG,0.247
2,GTAGGAGA,-0.0724
3,GAGGCCCA,-0.28
4,AGCCCCTA,-0.253
5,AAGCGGAG,-0.121
6,CGCACAGA,0.0461
7,CGCGACAG,-0.108
8,CTCCGTAA,0.0782
9,CCCATCTC,-0.155
10,AAGATCTT,0.206
11,CTCTGCAG,-0.135
12,CTTTTTAA,0.114
13,CGGCGTCA,-0.237
14,CGATTTCA,-0.0921
15,CAGGACTA,-0.0422
16,CAACTATG,0.102
17,CCCTTGAC,-0.114
18,CTCGTTTA,-0.00935
19,CGTTTCCA,-0.0573
20,CGGAACTC,0.0371
21,CCAGCCGA,-0.209
22,ACTATCAA,0.248
23,ACAAGCGG,0.0936
24,ATCATGAC,0.0647
25,ATGAGAAC,0.108

row,Sequence,PBM E-score
1,GATGTCAC,0.066
2,ACCGTAAT,-0.0273
3,AATAGACC,-0.0276
4,TCTAATCA,0.188
5,CATGCTTA,-0.0397
6,AAGCGTCT,-0.119
7,CTACGTAG,-0.0135
8,GGATTTTA,0.092
9,CACCGTAC,-0.0902
10,AAATCCTG,0.163
11,CCTAAAGA,-0.0735
12,GAGATTCA,0.105
13,TGGAAACA,-0.0929
14,ACGAACAC,0.0804
15,AGTGGCTA,-0.183
16,GTAATCGA,0.0467
17,CAATGACG,-0.158
18,TATTATCA,0.153
19,AGGCCTTA,-0.163
20,ATGTAAGC,0.125
21,GCCTATCA,0.0241
22,ATGTGATC,0.0552
23,CGTATAAA,0.291
24,ATCACTTG,0.0311
25,GCGGGGGA,-0.21

row,Sequence,PBM E-score
1,GGTCGCAA,-0.054
2,CCATCACC,-0.146
3,ATATAGGA,0.133
4,CTCCTTTC,-0.119
5,CAGCGTAC,-0.237
6,AAGCTTTA,0.0466
7,ACACTTCC,0.0571
8,ACCGTGTC,-0.117
9,CCAAGGCA,-0.143
10,GACCCAAC,-0.0289
11,CTCCGGCA,-0.0382
12,GGGTCGAC,-0.206
13,AATGTCGC,-0.145
14,ATTTCTCA,0.192
15,TCAAATAA,0.202
16,AGGGTATA,0.192
17,ATGGGTTC,-0.15
18,ACTGTAGA,0.127
19,CAGGTCGC,-0.187
20,CGGGGTAC,-0.401
21,GAGGGTAA,-0.0946
22,ACCTCGGG,-0.309
23,GTTTTATA,0.0686
24,ACGATTCT,0.104
25,ACTCAATG,0.0914

row,Sequence,PBM E-score
1,GACAGATC,0.031
2,ACAAAACC,0.198
3,CATTTATC,0.278
4,AACTCCCT,-0.021
5,GACGACCC,-0.306
6,CTGCTCTC,-0.153
7,GCATCTAC,0.0696
8,CGCCGTAC,-0.0656
9,ACTCCGAG,-0.00106
10,CAACGCCG,-0.229
11,CCACAAGC,-0.184
12,GACTCAGC,-0.1
13,ACTCAGTA,0.27
14,AAGGCACC,-0.199
15,CTACTCAA,0.248
16,CCGTGTAA,0.0401
17,CAGCTTTC,-0.13
18,GCGGGGCA,-0.227
19,AACAGAAG,0.00835
20,CTACGCGC,-0.048
21,GCGATTGA,0.0814
22,TAAGGCCA,-0.154

# Reference: the supplement of paper PMC3334620
